From the supplement of paper PMC10126150
Values marked as one replicate rest on one cluster of the flow cell; about a third of the high ones do not repeat.

Tested on: ATP
Test: switch fluorescence ratio, 500 uM ATP over buffer (Cy3 cluster intensity, sum of 5 cycles each) (fold (ratio)); higher = stronger signal-on switching upon ATP binding; sequences stand for … in TCGTCGGCAGCGTCAGATGTGTATAAGAGACAGTTTTTTTTTTTTTTTTTTTTTTTTT…TC
Conditions: aptamer strand: ATP DNA aptamer (quencher-CACCTGGGGGAGTATTGCGGAGGAAGG + anchor), 100 nM annealed; ATP concentration: 500 uM; one replicate
Method in brief: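 Imaging in selection buffer was followed by imaging after 15 min with 500 uM ATP at 22 °C, for Cy3-labelled switching-strand clusters annealed to 100 nM quencher-labelled ATP aptamer on a modified Illumina MiSeq flow-cell. Five of these buffer/ATP cycles ran, separated by NaOH stripping and re-annealing. The fluorescence ratio per cluster is summed target-cycle over summed buffer-cycle Cy3 intensity, averaged per switch-domain sequence; clusters outside 100-1000 RFU were removed.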
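Also: ATP exposure 15 min at 22 °C before imaging.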

GGCTCATAT
switch fluorescence ratio: 0.964

ATATAAGTTG
switch fluorescence ratio: 1.04

ATCGGTATGA
switch fluorescence ratio: 0.973

AAGAAGATAT
switch fluorescence ratio: 0.993

ATCTCCAGAT
switch fluorescence ratio: 1.01

TTCGGCCAGG
switch fluorescence ratio: 1.19

CAGATGATCT
switch fluorescence ratio: 1.01

TCACCAATCT
switch fluorescence ratio: 1.04

TGTTAGACGT
switch fluorescence ratio: 1.06

GAATCATCTT
switch fluorescence ratio: 1.01

TTGATGTAA
switch fluorescence ratio: 0.973

AATGGAAAGC
switch fluorescence ratio: 1

TACCGGTCAT
switch fluorescence ratio: 0.974

TTTAACCCCG
switch fluorescence ratio: 1.01

AAAGCGTGTA
switch fluorescence ratio: 1.04

AAGTACTCCT
switch fluorescence ratio: 1.4

CCGGTAATTT
switch fluorescence ratio: 1.01

GTGGTGTTGA
switch fluorescence ratio: 0.964

GATCGAGCCA
switch fluorescence ratio: 1.02

AAGCGCACTG
switch fluorescence ratio: 1.08

CTTTAAGTT
switch fluorescence ratio: 1.02

TTAGAAGAAG
switch fluorescence ratio: 1.01

GACGGCTTGT
switch fluorescence ratio: 0.988

ACTGGTAGTT
switch fluorescence ratio: 1.01

ATTCTTATGC
switch fluorescence ratio: 1.05

CTCCGGTTTT
switch fluorescence ratio: 1.7

CTGTCGGATC
switch fluorescence ratio: 0.975

CTAATTGGGG
switch fluorescence ratio: 0.984

GCGGACGGC
switch fluorescence ratio: 0.973

TTGTGCAAAA
switch fluorescence ratio: 0.978

GTAATGAGAA
switch fluorescence ratio: 1.01

TCCAAAGAC
switch fluorescence ratio: 1.02

AGATCAGTTG
switch fluorescence ratio: 0.998

GCGGGCGGCA
switch fluorescence ratio: 0.985

TTACGTGTTT
switch fluorescence ratio: 1.03

ATATGCCTTG
switch fluorescence ratio: 0.983

GCCGTATTTT
switch fluorescence ratio: 0.997

TGGAACCGGC
switch fluorescence ratio: 1.17

GGCATTTTGT
switch fluorescence ratio: 0.999

TTTAGTGAGA
switch fluorescence ratio: 1.02

TAAGGTCCGC
switch fluorescence ratio: 1.09

CAGAAGTCTT
switch fluorescence ratio: 1.01

ATTTGACTA
switch fluorescence ratio: 1

ATAACCTTGG
switch fluorescence ratio: 1.02

TTATGGAAAA
switch fluorescence ratio: 0.984

CCACGTGGCC
switch fluorescence ratio: 1.01

TCTGGGGCTA
switch fluorescence ratio: 1.04

GTCGAGCCGA
switch fluorescence ratio: 1.05

AGACAGCTA
switch fluorescence ratio: 1.42

AAACATATTG
switch fluorescence ratio: 1.14

TTCTAGGGGA
switch fluorescence ratio: 0.977

GAACTTAGAA
switch fluorescence ratio: 1.02

TTCTTGTAGG
switch fluorescence ratio: 1.02

GAGTAACAAT
switch fluorescence ratio: 1.02

TTACGTGGCT
switch fluorescence ratio: 0.986

GGCGTTTCAG
switch fluorescence ratio: 1.01

CAGACCACAG
switch fluorescence ratio: 1.09

CGTCAGTATC
switch fluorescence ratio: 1.16

TGATAGTTTC
switch fluorescence ratio: 0.993

CACCCTGGGG
switch fluorescence ratio: 1.05

AGGACAAGC
switch fluorescence ratio: 1.02

GCAATGGCTA
switch fluorescence ratio: 1.08

AATTACCTGG
switch fluorescence ratio: 0.971

GGATTTCTAT
switch fluorescence ratio: 0.99

CACTCTACCA
switch fluorescence ratio: 1.34

ACGAAAAAAA
switch fluorescence ratio: 1.01

TTTGCGGTTG
switch fluorescence ratio: 0.983

GCGCTTTTTC
switch fluorescence ratio: 1.09

CTTTCTTGGC
switch fluorescence ratio: 1.04

AATCGCCCGT
switch fluorescence ratio: 1.01

AACCTGACAT
switch fluorescence ratio: 1.43

CACCTTAA
switch fluorescence ratio: 1.12

GGTGGGCACC
switch fluorescence ratio: 0.997

GAATTTCTCC
switch fluorescence ratio: 1.05

ACAAGTCCTC
switch fluorescence ratio: 1

TAGATTCTTC
switch fluorescence ratio: 1.04

GCAGCGCCCG
switch fluorescence ratio: 1

GGTTTGCAAA
switch fluorescence ratio: 0.962

TTCATTGGGC
switch fluorescence ratio: 0.966

GGCCTGGTTG
switch fluorescence ratio: 1.01

AAGTCAATTG
switch fluorescence ratio: 0.986

GGGGTCCCCC
switch fluorescence ratio: 1.36

TTGTCTGTGC
switch fluorescence ratio: 1.05

TAAAGAGTCC
switch fluorescence ratio: 0.983

GACGAAGGAT
switch fluorescence ratio: 1

GTTACAAAAT
switch fluorescence ratio: 0.97

TAGAGGGGT
switch fluorescence ratio: 0.966

AGCCGCTTGT
switch fluorescence ratio: 1.06

ACTACGATAA
switch fluorescence ratio: 1.39

TTGAGTCACT
switch fluorescence ratio: 0.952

GACGTTTAGA
switch fluorescence ratio: 1.03

AAATAGCGGG
switch fluorescence ratio: 1.01

AATTCTTTAA
switch fluorescence ratio: 0.924

GTCATATGTT
switch fluorescence ratio: 1.03

AGCGAGTTTA
switch fluorescence ratio: 1

TAAATCGATT
switch fluorescence ratio: 1.01

TAGGACTGGA
switch fluorescence ratio: 1.04

GACCCATCTT
switch fluorescence ratio: 0.984

GCGTACCGCG
switch fluorescence ratio: 1.02

CCGTCGACGA
switch fluorescence ratio: 0.965

TTACGTCAGG
switch fluorescence ratio: 1.05

CCAATCTTGC
switch fluorescence ratio: 1.14

GGACGTGGCC
switch fluorescence ratio: 1.01

TTACCCTTGC
switch fluorescence ratio: 1.48

TGACACGTA
switch fluorescence ratio: 1.16

GGAATCCTAA
switch fluorescence ratio: 0.982

CGGTTCTTTT
switch fluorescence ratio: 0.983

TTATAGCAAA
switch fluorescence ratio: 1.05

TTAAGTAAGT
switch fluorescence ratio: 1.03

GGTGCAAAG
switch fluorescence ratio: 0.978

CCTCCTAAGA
switch fluorescence ratio: 3.34

CTATAACTTG
switch fluorescence ratio: 0.992

GTTAGGCGCT
switch fluorescence ratio: 1.06

CTAAAGGTAC
switch fluorescence ratio: 1.05

ATCGGTAGCT
switch fluorescence ratio: 1

TCTGAATTGT
switch fluorescence ratio: 0.983

TGAATTGTA
switch fluorescence ratio: 0.987

AAGGGTCTCC
switch fluorescence ratio: 0.983

GGTATTCTT
switch fluorescence ratio: 0.998

GTGATCTTGG
switch fluorescence ratio: 1.02

GATGCAGAG
switch fluorescence ratio: 1.04

TGCTACGGCA
switch fluorescence ratio: 1.06

ACTGATCCAC
switch fluorescence ratio: 1.13

AGGGATTGTG
switch fluorescence ratio: 1

ACCCGGAAGT
switch fluorescence ratio: 1.07

AAGTCGAATG
switch fluorescence ratio: 1.02

AAAGGCAATT
switch fluorescence ratio: 1.07

CGCAGGTTTA
switch fluorescence ratio: 0.976

CACCAAAAGG
switch fluorescence ratio: 0.995

GAGCTGCGGA
switch fluorescence ratio: 1

TAGACCAGTC
switch fluorescence ratio: 1.04

CCCAATCAGT
switch fluorescence ratio: 0.986

AAGACTTCGG
switch fluorescence ratio: 1.02

GTGCAGTGCC
switch fluorescence ratio: 0.992

ATATTGCGCG
switch fluorescence ratio: 0.996

ATTAATACGA
switch fluorescence ratio: 1.03

CATTTTGGGG
switch fluorescence ratio: 1.06

GTAATTTGAC
switch fluorescence ratio: 0.978

CTGAGTCACT
switch fluorescence ratio: 1.03

GAAGTGGACA
switch fluorescence ratio: 1.03

ATTCCTTAAA
switch fluorescence ratio: 0.99

GGCGCTACGT
switch fluorescence ratio: 1.13

CGTTAAGGGC
switch fluorescence ratio: 1.07

GCGAATAGGA
switch fluorescence ratio: 1.03

ACATGCATAC
switch fluorescence ratio: 3.16

TCGCAGTCGT
switch fluorescence ratio: 1.04

ATGCGGGCCG
switch fluorescence ratio: 0.924

AACTATGCTG
switch fluorescence ratio: 1.07

AGATTGAGTT
switch fluorescence ratio: 0.967

AAACATCTGG
switch fluorescence ratio: 0.98

GAAATGGGCC
switch fluorescence ratio: 1.04

CTTGTCATGT
switch fluorescence ratio: 0.994

CCGAAAGAGG
switch fluorescence ratio: 1.03

CTGCTAGGC
switch fluorescence ratio: 1.58

TTTGTCTAAC
switch fluorescence ratio: 0.994

GGGGGTCGAG
switch fluorescence ratio: 1.01

GTGTTACTCC
switch fluorescence ratio: 1.36
